T1: human CD98hc endogenously expressed on HCMEC/D3 cells (human)
T1 construct: human brain endothelial cell line
T1 chain: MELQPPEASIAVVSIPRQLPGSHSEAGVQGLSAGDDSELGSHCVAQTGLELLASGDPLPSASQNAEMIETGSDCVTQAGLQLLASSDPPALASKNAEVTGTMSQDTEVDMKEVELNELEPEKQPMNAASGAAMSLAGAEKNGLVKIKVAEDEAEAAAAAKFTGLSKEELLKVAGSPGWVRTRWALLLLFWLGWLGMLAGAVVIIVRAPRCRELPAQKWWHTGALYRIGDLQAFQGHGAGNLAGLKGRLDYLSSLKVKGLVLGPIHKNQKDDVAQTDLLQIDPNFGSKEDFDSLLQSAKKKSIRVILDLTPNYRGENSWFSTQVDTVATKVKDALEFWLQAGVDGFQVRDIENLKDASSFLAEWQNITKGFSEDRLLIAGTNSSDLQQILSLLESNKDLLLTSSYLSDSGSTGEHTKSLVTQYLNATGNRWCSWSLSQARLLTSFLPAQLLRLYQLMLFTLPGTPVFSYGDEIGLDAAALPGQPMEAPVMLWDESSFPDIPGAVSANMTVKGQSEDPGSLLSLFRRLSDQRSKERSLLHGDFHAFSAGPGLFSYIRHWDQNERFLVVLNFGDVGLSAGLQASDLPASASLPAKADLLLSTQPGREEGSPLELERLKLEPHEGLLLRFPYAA

T2: Full length human CD98hc on CHO cells (human)
T2 construct: CHO cells stably overexpressing it; also called CHO-human CD98hc; CHO-huCD98hc
T2 chain: T1 chain

B1: CD98hc.05.144 (2+1 bispecific antibody) (bispecific antibody)
heavy 1: EVRLLESGGGLVQPGGSLRLSCAASGFTFSNYAMGWVRQAPGKGLEWVSAISGSGGSTYYADSVKGRFTTSRDDSKNALYLQMNSLRAEDTAVYYCARGGPGWYAADVWGQGTTVTVSSASTKGPSVFPLAPSSKSTSGGTAALGCLVKDYFPEPVTVSWNSGALTSGVHTFPAVLQSSGLYSLSSVVTVPSSSLGTQTYICNVNHKPSNTKVDKKV[here human IgG1 Fc with changes without letters]GGGGSGGGGSGGGGSEVQLVESGGALVKPGGSLKLSCAASGFAFSSFDMSWVRQTPERRVEWVAYISGGGGSTYHPDTVKGRFAISRDNAKNTLYLHMNSLKSEDTAMYYCVRQGSRPWFAYWGQGTLVTVSSGGSEGKSSGSGSESKSTGGSDFVMSQSPSSLTVSVGEKVTMTCKSSQSLLYSYTQKNYLAWYQQKPGQSPNLLIYWASTRESGVPDRFAGSGSGTDFTLTISSVEAEDLAVYYCQQYSNYPPTFGGGTKLEIK
heavy 2: EVRLLESGGGLVQPGGSLRLSCAASGFTFSNYAMGWVRQAPGKGLEWVSAISGSGGSTYYADSVKGRFTTSRDDSKNALYLQMNSLRAEDTAVYYCARGGPGWYAADVWGQGTTVTVSS[here human IgG1 constant region with changes without letters]
light: DIQMTQSPSSLSASVGDRVTITCRASQSISSYLNWYQQKPGKAPKLLIYAASSLQSGVPSRFSGSGSGTDFTLTISSLQPEDFATYYCQQADLPAFAFGGGTKVEIKRTVAAPSVFIFPPSDEQLKSGTASVVCLLNNFYPREAKVQWKVDNALQSGNSQESVTEQDSKDSTYSLSSTLTLSKADYEKHKVYACEVTHQGLSSPVTKSFNRGEC
B2: CD98hc.05.168 (2+1 bispecific antibody) (bispecific antibody)
heavy 1: EVRLLESGGGLVQPGGSLRLSCAASGFTFSNYAMGWVRQAPGKGLEWVSAISGSGGSTYYADSVKGRFTTSRDDSKNALYLQMNSLRAEDTAVYYCARGGPGWYAADVWGQGTTVTVSSASTKGPSVFPLAPSSKSTSGGTAALGCLVKDYFPEPVTVSWNSGALTSGVHTFPAVLQSSGLYSLSSVVTVPSSSLGTQTYICNVNHKPSNTKVDKKV[here human IgG1 Fc with changes without letters]GGGGSGGGGSGGGGSEVQLVESGGGLVKPGGSLKLSCAASGFAFSTYDMSWVRQTPEKRLEWVAYISSGGDTTYYPDTVKGRFTISRDNAKNTLYLQMSSLKSEDSAIYYCARQDYRPYFAYWGQGTLVTVSSGGSEGKSSGSGSESKSTGGSDIVMSQSPSSLAVSVGEKVTVSCKSSQNLLYSSNQKNYLAWYQQKPGQSPKLLIYWASTRESGVPDRFTGSGSGTDFTLTISSVKAEDLAVYYCQQYSYYPPTFGGGTKLEIK
heavy 2: EVRLLESGGGLVQPGGSLRLSCAASGFTFSNYAMGWVRQAPGKGLEWVSAISGSGGSTYYADSVKGRFTTSRDDSKNALYLQMNSLRAEDTAVYYCARGGPGWYAADVWGQGTTVTVSS[here human IgG1 constant region with changes without letters]
light: B1 light
B3: CD98hc.05.166 (2+1 bispecific antibody) (bispecific antibody)
heavy 1: EVRLLESGGGLVQPGGSLRLSCAASGFTFSNYAMGWVRQAPGKGLEWVSAISGSGGSTYYADSVKGRFTTSRDDSKNALYLQMNSLRAEDTAVYYCARGGPGWYAADVWGQGTTVTVSSASTKGPSVFPLAPSSKSTSGGTAALGCLVKDYFPEPVTVSWNSGALTSGVHTFPAVLQSSGLYSLSSVVTVPSSSLGTQTYICNVNHKPSNTKVDKKV[here human IgG1 Fc with changes without letters]GGGGSGGGGSGGGGSEVQLLQSGAELVKPGASVKLSCTASGFNILDTYIHWVMQRPEQGLEWIGRIDPANGHVKYDPKFQGKATITADTSSNTAYLQLSSLTSEDTAVYYCASPFTTVVATNIYYYGLGYWGHGTSVTVSSGGSEGKSSGSGSESKSTGGSDIVMTQSHKFMSTSLGDRVSITCKASQGVFTAVAWYQQKPGQSPKLLIYSASYRYTGVPDRFTGSGSGTDFTFTISSVQAEDLAVYYCQQHYSTPWTFGGGTKLEIK
heavy 2: EVRLLESGGGLVQPGGSLRLSCAASGFTFSNYAMGWVRQAPGKGLEWVSAISGSGGSTYYADSVKGRFTTSRDDSKNALYLQMNSLRAEDTAVYYCARGGPGWYAADVWGQGTTVTVSS[here human IgG1 constant region with changes without letters]
light: B1 light

For the first assay, the target named is T1, human CD98hc endogenously expressed on …. The assay is described as follows: FACS. Background: A flow cytometer gives signals particle by particle.
Turning to B1, the “MFI ratio HCMEC/2nd ab only” value turned out to be 405.
Same read-out and setting: next, B2: 204; B3: 60.

The next assay has as its target T2, Full length human CD98hc on CHO cells. The assay is described as follows: FACS.
Turning to B1, the “MFI ratio CHO huCD98/CHO parental” value was 32.
The same measure, in the same setting: next, B2: 18.
B3: the “MFI ratio CHO huCD98/CHO parental” value was determined as 9.
